In a collection of fitness landscapes (doi:10.1016/j.celrep.2020.107928):
Over roughly 81,000 sequences, “one-hybrid fitness for binding NBS DNA” has its median near -0.1; the highest 2% begin near 0.36. The list shows a part of the results.

B1: Caulobacter ParB omega fusion; a variant is named by its letters at X, in order, B8GW30 (parent)
chain: MESVVVGEPGMSEGRRGLGRGLSALLGEVDAAPAQAPGEQLGGSREAPIEILQRNPDQPRRTFREEDLEDLSNSIREKGVLQPILVRPSPDTAGEYQIVAGERAWRAAQRAGLKTVPIMVRELDDLAVLEIGIIENVQRADLNVLEEALSYKVLMEKFERTQENIAQTIGKSXSHVANXMRLLXLPDEVQSYLVSGELTAXHARAIAAAADPVALAKQIIEGGLSVRETEALARKAPNLSAGKSKGGRPPRVKDTDTQALESDLSSVLGLDVSIDHRGSTGTLTITYATLEQLDDLCNRLTRGI

Variants of: B1
Assay: one-hybrid fitness for binding NBS DNA (the Noc-binding site; scaled: cognate 1, non-cognate 0); higher = stronger binding
Conditions: with NBS DNA site
Method in brief: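 On M9-minus-histidine containing 0.1 mM IPTG and 5 mM 3-AT, E. coli USO cells with a HIS3 reporter, site 19 bp from the promoter, grew 48 hours at 37°C to select Caulobacter ParB libraries randomised at four specificity codons. Plasmids from before and after were Illumina-sequenced, with three replicate libraries pooled and variants under 10 reads left out. Fitness is the log change in variant-to-wild-type read ratio, rescaled against cognate and non-cognate.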

Row | Variant | one-hybrid fitness for binding NBS DNA
1 | GKGT | ≤ 0.2
2 | TGKC | ≤ 0.2
3 | DDSA | ≤ 0.2
4 | PSWC | ≤ 0.2
5 | ELSY | ≤ 0.2
6 | QARD | 0.23
7 | REGL | ≤ 0.2
8 | KHGR | ≤ 0.2
9 | TDQN | ≤ 0.2
10 | WQLC | ≤ 0.2
11 | VSAN | ≤ 0.2
12 | CSLL | ≤ 0.2
13 | DDPR | ≤ 0.2
14 | LSVV | ≤ 0.2
15 | YLHD | ≤ 0.2
16 | EKFT | ≤ 0.2
17 | SIFD | ≤ 0.2
18 | PCRS | ≤ 0.2
19 | HPMS | ≤ 0.2
20 | QASQ | ≤ 0.2
21 | VTIM | ≤ 0.2
22 | FRDG | ≤ 0.2
23 | SMLK | ≤ 0.2
24 | HTVC | ≤ 0.2

Row | Variant | one-hybrid fitness for binding NBS DNA
25 | ASGE | ≤ 0.2
26 | PMER | ≤ 0.2
27 | CKGS | ≤ 0.2
28 | DALD | ≤ 0.2
29 | PHRR | ≤ 0.2
30 | HATS | ≤ 0.2
31 | YITY | ≤ 0.2
32 | KDCL | ≤ 0.2
33 | DTKM | ≤ 0.2
34 | KTPI | ≤ 0.2
35 | DLAW | ≤ 0.2
36 | WETT | ≤ 0.2
37 | DNTF | ≤ 0.2
38 | SMGN | ≤ 0.2
39 | YPTD | ≤ 0.2
40 | GADI | ≤ 0.2
41 | DTAS | ≤ 0.2
42 | HLSC | ≤ 0.2
43 | ADFR | ≤ 0.2
44 | RRHY | 0.452
45 | NAIG | ≤ 0.2
46 | MVHC | ≤ 0.2
47 | LDDT | ≤ 0.2
48 | GVTY | ≤ 0.2

Row | Variant | one-hybrid fitness for binding NBS DNA
49 | NGRH | ≤ 0.2
50 | NRYG | ≤ 0.2
51 | SATG | ≤ 0.2
52 | NAWA | ≤ 0.2
53 | SGDS | ≤ 0.2
54 | LQRR | ≤ 0.2
55 | TSIF | ≤ 0.2
56 | GHPG | ≤ 0.2
57 | SKQC | ≤ 0.2
58 | ERKL | ≤ 0.2
59 | AIGA | ≤ 0.2
60 | ERLT | ≤ 0.2
61 | TWAI | ≤ 0.2
62 | HMMA | ≤ 0.2
63 | PLLP | ≤ 0.2
64 | RYDD | ≤ 0.2
65 | ISLR | ≤ 0.2
66 | EPTN | ≤ 0.2
67 | FQAG | ≤ 0.2
68 | FSSY | ≤ 0.2
69 | LCEP | ≤ 0.2
70 | DCYS | ≤ 0.2
71 | TLEW | ≤ 0.2
72 | AHTF | ≤ 0.2

Row | Variant | one-hybrid fitness for binding NBS DNA
73 | TFYT | ≤ 0.2
74 | DSCY | ≤ 0.2
75 | MCLY | ≤ 0.2
76 | KFRT | ≤ 0.2
77 | RYFC | ≤ 0.2
78 | KMQA | ≤ 0.2
79 | SPSN | ≤ 0.2
80 | SGQI | ≤ 0.2
81 | LAPM | ≤ 0.2
82 | TGTD | ≤ 0.2
83 | QSAC | ≤ 0.2
84 | FLMT | ≤ 0.2
85 | GTHT | ≤ 0.2
86 | YKSC | ≤ 0.2
87 | AADL | ≤ 0.2
88 | CYKS | ≤ 0.2
89 | DIHR | ≤ 0.2
90 | IYHR | ≤ 0.2
91 | WSMM | ≤ 0.2
92 | RAHD | ≤ 0.2
93 | QSKK | 0.412
94 | QMIG | ≤ 0.2
95 | YWYV | ≤ 0.2
96 | CDTR | ≤ 0.2

Row | Variant | one-hybrid fitness for binding NBS DNA
97 | VLMS | ≤ 0.2
98 | PVKI | ≤ 0.2
99 | VWNC | ≤ 0.2
100 | VTKR | 0.31
101 | KGLV | ≤ 0.2
102 | QVQR | 0.368
103 | ASNV | ≤ 0.2
104 | ALHN | ≤ 0.2
105 | DHMG | ≤ 0.2
106 | ATEG | ≤ 0.2
107 | HIQT | ≤ 0.2
108 | YATG | ≤ 0.2
109 | QRVG | 0.232
110 | SIGL | ≤ 0.2
111 | RGCC | ≤ 0.2
112 | KKVI | ≤ 0.2
113 | ESWT | ≤ 0.2
114 | KDST | ≤ 0.2
115 | TNNT | ≤ 0.2
116 | RILG | ≤ 0.2
117 | WQHS | ≤ 0.2
118 | GNWP | ≤ 0.2
119 | HISS | ≤ 0.2
120 | LFFG | ≤ 0.2

Row | Variant | one-hybrid fitness for binding NBS DNA
121 | YFHC | ≤ 0.2
122 | DIVV | ≤ 0.2
123 | MWKR | ≤ 0.2
124 | DVPP | ≤ 0.2
125 | ALID | ≤ 0.2
126 | MKKY | ≤ 0.2
127 | RCHW | ≤ 0.2
128 | LSFF | ≤ 0.2
129 | ISTT | ≤ 0.2
130 | LRAL | ≤ 0.2
131 | AVQD | ≤ 0.2
132 | IQNS | ≤ 0.2
133 | CQRC | ≤ 0.2
134 | NAYC | ≤ 0.2
135 | RHAT | 0.432
136 | PLNC | ≤ 0.2
137 | EVYC | ≤ 0.2
138 | EKVT | ≤ 0.2
139 | RPES | ≤ 0.2
140 | GNYQ | ≤ 0.2
141 | VCRE | ≤ 0.2
142 | RSHC | ≤ 0.2
143 | LCNR | ≤ 0.2
144 | MQMS | ≤ 0.2

Row | Variant | one-hybrid fitness for binding NBS DNA
145 | AAFP | ≤ 0.2
146 | PMGG | ≤ 0.2
147 | HNSE | ≤ 0.2
148 | IRGR | 0.305
149 | YEHS | ≤ 0.2
150 | ASGT | ≤ 0.2
151 | HKIE | ≤ 0.2
152 | EACL | ≤ 0.2
153 | FGMF | ≤ 0.2
154 | RSGV | ≤ 0.2
155 | KFNG | ≤ 0.2
156 | CSIV | ≤ 0.2
157 | GFNP | ≤ 0.2
158 | YMIS | ≤ 0.2
159 | LMGT | ≤ 0.2
160 | YTTT | ≤ 0.2
161 | SLYQ | ≤ 0.2
162 | AQMR | ≤ 0.2
163 | YYHR | ≤ 0.2
164 | PICL | ≤ 0.2
165 | CIGT | ≤ 0.2
166 | WDVG | ≤ 0.2
167 | SVHE | ≤ 0.2
168 | MQQT | ≤ 0.2

Row | Variant | one-hybrid fitness for binding NBS DNA
169 | RIGA | ≤ 0.2
170 | FRYS | ≤ 0.2
171 | QVKI | ≤ 0.2
172 | KLCT | ≤ 0.2
173 | LPWA | ≤ 0.2
174 | HHSI | ≤ 0.2
175 | LCIM | ≤ 0.2
176 | AYQF | ≤ 0.2
177 | NLED | ≤ 0.2
178 | IKQM | ≤ 0.2
179 | QYCV | ≤ 0.2
180 | SFMR | ≤ 0.2
181 | IEAV | ≤ 0.2
182 | QIDL | ≤ 0.2
183 | WSIT | ≤ 0.2
184 | LQMM | ≤ 0.2
185 | YIDC | ≤ 0.2
186 | GMLI | ≤ 0.2
187 | GEQY | ≤ 0.2
188 | RMIG | ≤ 0.2
189 | EDSL | ≤ 0.2
190 | PPQT | ≤ 0.2
191 | RMCH | ≤ 0.2
192 | HCMM | ≤ 0.2

Row | Variant | one-hybrid fitness for binding NBS DNA
193 | KNEP | ≤ 0.2
194 | MMTG | ≤ 0.2
195 | GTNA | ≤ 0.2
196 | PMAN | ≤ 0.2
197 | FPNL | ≤ 0.2
198 | HDVT | ≤ 0.2
199 | QMPE | ≤ 0.2
200 | NFNG | ≤ 0.2
201 | TMII | ≤ 0.2
202 | TIKR | 0.202
203 | TTHC | ≤ 0.2
204 | YNPY | ≤ 0.2
205 | GCGC | ≤ 0.2
206 | FYSW | ≤ 0.2
207 | LKEC | ≤ 0.2
208 | MWWA | ≤ 0.2
209 | LPYT | ≤ 0.2
210 | QSFL | ≤ 0.2
211 | MEPH | ≤ 0.2
212 | ADFC | ≤ 0.2
213 | CWSD | ≤ 0.2
214 | RPRY | ≤ 0.2
215 | CARA | ≤ 0.2
216 | TVAC | ≤ 0.2

Row | Variant | one-hybrid fitness for binding NBS DNA
217 | KRMG | ≤ 0.2
218 | LRQC | ≤ 0.2
219 | EQHR | ≤ 0.2
220 | RVCC | ≤ 0.2
221 | MTSW | ≤ 0.2
222 | WTNG | ≤ 0.2
223 | GFHG | ≤ 0.2
224 | RQNS | 0.48
225 | CFIT | ≤ 0.2
226 | TAIV | ≤ 0.2
227 | QEAP | ≤ 0.2
228 | RMDF | ≤ 0.2
229 | VAKF | ≤ 0.2
230 | HEWF | ≤ 0.2
231 | HKCM | ≤ 0.2
232 | QQLA | 0.294
233 | ITNS | ≤ 0.2
234 | HYDR | ≤ 0.2
235 | KKPR | ≤ 0.2
236 | QMTK | ≤ 0.2
237 | IHGR | ≤ 0.2
238 | QVIN | ≤ 0.2
239 | DSVC | ≤ 0.2
240 | RALC | ≤ 0.2

Row | Variant | one-hybrid fitness for binding NBS DNA
241 | LRGR | 0.267
242 | MRGF | ≤ 0.2
243 | QTYA | 0.427
244 | RIYR | 0.377
245 | YKDT | 0.385
246 | LASK | ≤ 0.2
247 | GMYE | ≤ 0.2
248 | EASW | ≤ 0.2
249 | CKLT | ≤ 0.2
250 | DMPW | ≤ 0.2
251 | RKCC | ≤ 0.2
252 | MTPY | ≤ 0.2
253 | QLCC | ≤ 0.2
254 | ASDY | ≤ 0.2
255 | ICKS | ≤ 0.2
256 | KCVL | ≤ 0.2
257 | VEAT | ≤ 0.2
258 | HIRL | ≤ 0.2
259 | FPHV | ≤ 0.2
260 | HPDC | ≤ 0.2
261 | RTIY | ≤ 0.2
262 | CQGC | ≤ 0.2
263 | TEGR | ≤ 0.2
264 | LSFV | ≤ 0.2

Row | Variant | one-hybrid fitness for binding NBS DNA
265 | YTHS | ≤ 0.2
266 | YCRV | ≤ 0.2
267 | PTTT | ≤ 0.2
268 | ISDP | ≤ 0.2
269 | EFRL | ≤ 0.2
270 | IPVG | ≤ 0.2
271 | RWSH | ≤ 0.2
272 | TTQV | ≤ 0.2
273 | QDEV | ≤ 0.2
274 | FPDQ | ≤ 0.2
275 | WRFR | ≤ 0.2
276 | IKHS | ≤ 0.2
277 | GGFT | ≤ 0.2
278 | TRVR | 0.215
279 | VDVT | ≤ 0.2
280 | DHIR | ≤ 0.2
281 | PTGT | ≤ 0.2
282 | HNFC | ≤ 0.2
283 | SFFC | ≤ 0.2
284 | STHR | ≤ 0.2
285 | KGMR | ≤ 0.2
286 | GHTT | ≤ 0.2
287 | HSRE | ≤ 0.2
288 | ITYH | ≤ 0.2

Row | Variant | one-hybrid fitness for binding NBS DNA
289 | AMQS | ≤ 0.2
290 | WSQT | ≤ 0.2
291 | LYPV | ≤ 0.2
292 | QMMW | ≤ 0.2
293 | AIND | ≤ 0.2
294 | CIIW | ≤ 0.2
295 | SVRM | ≤ 0.2
296 | PIDC | ≤ 0.2
297 | WPDC | ≤ 0.2
298 | CFTV | ≤ 0.2
299 | KPKV | ≤ 0.2
300 | TSNG | ≤ 0.2
301 | DIVD | ≤ 0.2
302 | PRCS | ≤ 0.2
303 | TAHC | ≤ 0.2
304 | KTKN | ≤ 0.2
305 | MNTS | ≤ 0.2
306 | PNGS | ≤ 0.2
